Experimental data as given in PubChem BioAssay AID1468 (National Center for Advancing Translational Sciences (NCATS), 2008).
Values joined by “and” are separate entries in the source; they are usually repeats but may differ in a detail not shown here. Identical values can stand only once. Hit rate of the full screen: of about 280,000 compounds, about 1,100 (0.39%) were called active. Inconclusive results, whose numbers are uncertain, are shown with a selection of clear calls. Calls come from the whole dose curve; as a rule, active = well fitted inhibition curve with a large enough effect; inconclusive = small, poorly fitted or top-dose-only effect, or effect the other way; inactive = flat fitted curve, though single readings scatter. Potencies of inconclusive entries are doubtful fits and often do not repeat.

molecular target: Microtubule-associated protein tau (Homo sapiens) (UniProt P10636); assay: qHTS for Inhibitors of Tau Fibril Formation, Fluorescence Polarization; conditions: K18 P301L tau heparin fibrillization, Alexa594 FP, 6 h; series mostly up to 57.7 µM; note: nearly all actives have a fitted effect of over 55% in size
Chain of UniProt P10636 (P10636 whole entry, looked up): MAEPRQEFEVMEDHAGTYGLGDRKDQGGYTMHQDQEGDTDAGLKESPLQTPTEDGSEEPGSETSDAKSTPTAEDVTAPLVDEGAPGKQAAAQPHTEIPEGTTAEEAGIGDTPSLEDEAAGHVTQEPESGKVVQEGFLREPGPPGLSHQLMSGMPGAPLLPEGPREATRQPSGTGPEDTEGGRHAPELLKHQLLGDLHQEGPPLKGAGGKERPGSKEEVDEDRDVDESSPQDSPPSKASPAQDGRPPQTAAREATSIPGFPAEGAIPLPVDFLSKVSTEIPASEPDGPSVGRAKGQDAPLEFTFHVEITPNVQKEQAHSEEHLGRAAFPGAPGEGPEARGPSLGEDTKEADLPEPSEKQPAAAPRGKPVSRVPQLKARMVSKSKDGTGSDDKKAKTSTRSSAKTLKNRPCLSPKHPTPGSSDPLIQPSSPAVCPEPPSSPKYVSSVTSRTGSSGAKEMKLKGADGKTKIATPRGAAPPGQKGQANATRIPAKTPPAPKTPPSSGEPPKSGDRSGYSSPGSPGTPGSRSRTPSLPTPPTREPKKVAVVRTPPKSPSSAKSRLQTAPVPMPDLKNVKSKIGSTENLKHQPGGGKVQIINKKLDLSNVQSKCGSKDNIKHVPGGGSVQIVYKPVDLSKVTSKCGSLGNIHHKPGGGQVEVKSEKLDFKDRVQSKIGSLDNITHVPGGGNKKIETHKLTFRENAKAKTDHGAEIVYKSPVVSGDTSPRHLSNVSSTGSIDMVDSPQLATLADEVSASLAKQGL
How it was run: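 Heparin (20 uM) drove fibril formation of recombinant tau K18 P301L, 15 uM unlabeled with 0.24 uM Alexa 594 label, for 6 hr at 37 C in 100 mM sodium acetate pH 7. Fluorescence polarization (555/632 nm) read 1 hr after 30 uM ThT.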
Potency is the fitted concentration of half-maximal effect; tags give direction and shape of the fitted curve.

`Cc1ccc(-c2csc3nc(C)n(-n4c(C)ccc4C)c(=O)c23)o1` was tested. Which Potency did it give?
Its Potency is “inactive”.

How did the Potency turn out when `Cc1cccc(NC(=O)CSc2nnc(NC(=O)Nc3ccccc3)s2)c1C` was run?
Its Potency is inconclusive: 35.5 µM [inhibitor, single point].

Which Potency does the source give for `CC(=O)N=c1sc2ccccc2n1C` here?
The Potency was “inactive”.

With `COc1ccc(S(=O)(=O)c2c(Nc3ccccc3F)sc(C(=O)c3cccc(OC)c3)c2N)cc1` as the compound, how does the Potency read?
Its Potency is inconclusive: 39.8 µM [inhibitor, single point].

Which Potency does the source give for `Cc1ccc(NC(=O)CN(C)Cc2ccc(F)cc2)c([N+](=O)[O-])c1` here?
The Potency was inconclusive: 39.8 µM [activator, single point].

For `COc1ccc(C(=O)NCc2ccc(N3CCN(C(=O)OC(C)(C)C)CC3)cc2)cc1`, which Potency is on record?
The Potency was inconclusive: 39.8 µM [activator, single point].

Which Potency does the source give for `COc1cc2c(cc1NC(=O)Nc1ccccc1)oc1ccccc12` here?
Its Potency is “inactive”.

Which Potency does the source give for `CCO[C@H]1OC(C(=O)N2CCCCCCC2)=C[C@@H](C)[C@@H]1CCCO` here?
Its Potency is “inactive”.

How did the Potency turn out when `S=C(NCc1ccco1)Nc1cc(Cl)c(Cl)cc1Cl` was run?
The Potency was inconclusive: 2.82 µM [inhibitor, full curve].

How did the Potency turn out when `N#C/C(=C\c1ccc(OCc2ccc(Cl)cc2Cl)cc1)c1nc2ccccc2[nH]1` was run?
Its Potency is inconclusive: 28.2 µM [inhibitor, partial curve].

With `O=C1C=C[C@@H](O)[C@H]2[C@@H]3C(=O)N(Cc4ccc5c(c4)OCO5)C(=O)[C@@H]3CC[C@H]12` as the compound, how does the Potency read?
Its Potency is inconclusive: 0.708 µM [inhibitor, partial curve].

`COc1ccc(CN=Cc2c(C(=O)O)[nH]c3ccccc23)cc1` was tested. Which Potency did it give?
The Potency was “inactive”.

`O=C(NCCNC(=O)c1cc(OCC(F)(F)F)ccc1OCC(F)(F)F)Nc1cccc(C(F)(F)F)c1` was tested. Which Potency did it give?
Its Potency is active: 10 µM.

With `CCCCCS(=O)(=O)CCCCCCCCCCn1c(-c2ccc(O)cc2)c(C)c2cc(O)ccc21` as the compound, how does the Potency read?
The Potency was inconclusive: 5.01 µM [activator, full curve].

Which Potency does the source give for `CCCN1C(=O)c2cc(C(=O)NC3CCCCCC3)ccc2C1O` (stereo unspecified) here?
The Potency was “inactive”.

`C=CCc1c(C)nc(SCc2nc3ccccc3c(=O)[nH]2)[nH]c1=O` was tested. Which Potency did it give?
The Potency was “inactive”.

How did the Potency turn out when `Cc1c(NC(=O)Nc2ccc(Cl)c(Cl)c2)sc2nc3n(c(=O)c12)CCC(C)CC3` (stereo unspecified) was run?
The Potency was inconclusive: 0.891 µM [activator, partial curve].

Which Potency does the source give for `Cc1ccc(N(C)S(=O)(=O)c2ccc3[nH]c(=O)ccc3c2)cc1` here?
Its Potency is inconclusive: 20 µM [inhibitor, partial curve, poor fit].

For `CSc1nc(N)c(C#N)c(-c2ccc(Cl)cc2)c1C#N`, which Potency is on record?
The Potency was inconclusive: 11.2 µM [inhibitor, partial curve].

Which Potency does the source give for `c1ccc(NCCCNc2ccccc2)cc1` here?
Its Potency is inconclusive: 20 µM [activator, partial curve].

Which Potency does the source give for `N#CC1=C(N)Oc2c(ccc3ccccc23)C1c1ccsc1` (stereo unspecified) here?
The Potency was inconclusive: 44.7 µM [inhibitor, single point].

How did the Potency turn out when `CCN(CC)S(=O)(=O)c1cccc(NN=c2c(=O)c3ccccc3c2=O)c1` was run?
The Potency was “inactive”.

For `N#C/C(=C\c1c[nH]c2ccccc12)C(=O)Nc1ncc(Cc2ccc(Cl)cc2Cl)s1`, which Potency is on record?
Its Potency is inconclusive: 20 µM [inhibitor, partial curve].

With `Cc1cccc(CNc2nc(-c3ccc(C(=O)N(C)C)cc3)nc3ccccc23)c1` as the compound, how does the Potency read?
Its Potency is “inactive”.

How did the Potency turn out when `CCOC(=O)c1sc(-c2ccc(F)cc2)cc1NC(=O)Nc1ccccc1OC` was run?
The Potency was inconclusive: 14.1 µM [inhibitor, partial curve].

How did the Potency turn out when `Cc1cc(C)n(C(C)CC(=O)Nc2ccc(Cl)cc2C)n1` (stereo unspecified) was run?
Its Potency is “inactive”.

Which Potency does the source give for `CCOC(=O)C1=C(CC)Nc2ccccc2N=C1NC(=O)Nc1ccc(Cl)c(Cl)c1` here?
Its Potency is active: 12.6 µM.

For `CCCCC(=O)N1CCc2cc(OC)c(OC)cc2C1COc1ccc(C(=O)OCC)cc1` (stereo unspecified), which Potency is on record?
Its Potency is inconclusive: 44.7 µM [activator, single point].

With `CCOc1c(OC(C)=O)ccc(/C=C/c2ccc3cccc(OC)c3n2)c1[N+](=O)[O-]` as the compound, how does the Potency read?
The Potency was inconclusive: 39.8 µM [inhibitor, single point].

How did the Potency turn out when `COc1ccc(N=Cc2c(O)[nH]c3ccccc23)cc1OC` was run?
The Potency was inconclusive: 2.51 µM [activator, partial curve].

Which Potency does the source give for `CC[C@@]1(O)C(=O)OCc2c1cc1n(c2=O)Cc2cc3c(CN(C)C)c(O)ccc3nc2-1` here?
The Potency was “inactive”.

How did the Potency turn out when `Fc1ccc(NC(=S)N/N=C/c2cccc(Br)c2)c(F)c1` was run?
Its Potency is “inactive”.

Which Potency does the source give for `CC1CCCC(C)N1NC(=O)c1ccc(Cl)c(S(N)(=O)=O)c1` (stereo unspecified) here?
Its Potency is inconclusive: 20 µM [inhibitor, partial curve, poor fit].

For `O=C(CCc1ccccc1)Nc1cccc(NC(=O)CCc2ccccc2)c1`, which Potency is on record?
The Potency was inconclusive: 17.8 µM [inhibitor, single point].

For `Cc1ccc(Nc2nc(N)c([N+](=O)[O-])c(NCc3ccco3)n2)cc1`, which Potency is on record?
Its Potency is inconclusive: 28.2 µM [inhibitor, single point].

How did the Potency turn out when `CCOc1ccc(NC(=O)Cn2c(=O)n(CCCCC(=O)NCCc3ccc(Cl)cc3)c(=O)c3ccccc32)cc1` was run?
Its Potency is inconclusive: 39.8 µM [inhibitor, partial curve, poor fit].

With `CC(C)=CCCC(C)CN1CCC(O)CC1` (stereo unspecified) as the compound, how does the Potency read?
Its Potency is “inactive”.

Which Potency does the source give for `CCOC(=O)N1CCc2c(sc(NCc3ccc(N(CC)CC)cc3)c2C(=O)Nc2cc(OC)ccc2OC)C1` here?
Its Potency is inconclusive: 0.282 µM [activator, full curve, poor fit].

How did the Potency turn out when `N#CCCCN1C(=O)C(=C(C#N)C#N)c2ccccc21` was run?
Its Potency is inconclusive: 39.8 µM [inhibitor, single point].

`CCCCc1nnc(NC(=O)C2CC(=O)N(c3ccc(C)cc3)C2)s1` (stereo unspecified) was tested. Which Potency did it give?
The Potency was “inactive”.

How did the Potency turn out when `Cc1ccc(-n2c(=O)c3ccc(C(=O)NCc4ccco4)cc3n(CC(=O)Nc3ccc(C)c(F)c3)c2=O)cc1` was run?
The Potency was inconclusive: 8.91 µM [inhibitor, partial curve].

Which Potency does the source give for `CCC1CN(C(=O)N2CCC(C(=O)N3CCN(c4ccccc4)CC3)CC2)c2ccccc2O1` (stereo unspecified) here?
The Potency was inconclusive: 1.12 µM [activator, partial curve].

Which Potency does the source give for `CCCC(C(=O)NC1=NCCS1)c1ccccc1` (stereo unspecified) here?
Its Potency is “inactive”.

Which Potency does the source give for `CC(=O)Cc1nsc(NC(=O)c2ccc(-c3cc(Cl)ccc3Cl)o2)n1` here?
The Potency was inconclusive: 39.8 µM [activator, single point].

`COc1cc(OC)c(NC(=O)Nc2ccc3c(c2)N(C)C(=O)c2ccccc2S3)cc1Cl` was tested. Which Potency did it give?
Its Potency is “inactive”.

With `COc1cc(OC)cc(-n2c(=O)c3sccc3n(Cc3ccc(F)cc3)c2=O)c1` as the compound, how does the Potency read?
Its Potency is inconclusive: 3.16 µM [inhibitor, single point].

For `CCOc1ccccc1-n1nnnc1SCC(=O)OC`, which Potency is on record?
Its Potency is “inactive”.

`Cc1ccc(C(=O)O)cc1NC(=O)c1nsc2ccccc12` was tested. Which Potency did it give?
The Potency was inconclusive: 0.891 µM [inhibitor, full curve, poor fit].

`O=C(/C=C/c1cccs1)N1CCN(c2ccc(O)cc2)CC1` was tested. Which Potency did it give?
The Potency was “inactive”.

`O=C(CC(Nc1ccccc1Cl)C(=O)OCC(=O)c1cccs1)c1ccccc1` (stereo unspecified) was tested. Which Potency did it give?
The Potency was “inactive”.

How did the Potency turn out when `O=C1/C(=C\c2ccc(O)c(O)c2)N=C2CCCCCN12` was run?
The Potency was “inactive”.

For `Cc1ccc(NC(=O)CN2C(=O)CC(c3ccco3)Sc3ccccc32)cc1Cl` (stereo unspecified), which Potency is on record?
The Potency was “inactive”.

For `CCOC(=O)C1CCN(C(c2cc3ccc(C)cc3[nH]c2=O)c2nnnn2C2CCCCC2)CC1` (stereo unspecified), which Potency is on record?
The Potency was inconclusive: 10 µM [inhibitor, partial curve, poor fit].

How did the Potency turn out when `Cc1nn(-c2ccccc2)c2nc(-c3cccs3)cc(C(=O)NN)c12` was run?
Its Potency is inconclusive: 44.7 µM [inhibitor, single point].

With `COC(=O)c1c(-c2ccc(F)cc2)csc1NC(=O)C1CCCO1` (stereo unspecified) as the compound, how does the Potency read?
Its Potency is “inactive”.

`CCN(Cc1ccncc1)C(=O)c1cccs1` was tested. Which Potency did it give?
The Potency was “inactive”.

Which Potency does the source give for `O=C(C1=C(O)C(=O)N(CCN2CCOCC2)C1c1ccncc1)c1ccco1` (stereo unspecified) here?
The Potency was “inactive”.

For `Cc1ccc(O)c(C=Nc2ccc3[nH]ncc3c2)c1`, which Potency is on record?
The Potency was inconclusive: 12.6 µM [inhibitor, single point].

How did the Potency turn out when `CCCCS/C(N)=N/N=C/c1cc(C)ccc1O` was run?
Its Potency is “inactive”.

Which Potency does the source give for `CC(=O)NNc1ncnc2c1cnn2-c1ccccc1` here?
Its Potency is inconclusive: 39.8 µM [inhibitor, single point].

How did the Potency turn out when `COc1cc(C)c(-c2[nH]ncc2-c2csc(C)n2)c(O)c1` was run?
Its Potency is “inactive”.

With `Cc1cc(C)n(-c2nc3ccccc3nc2Nc2ccc3[nH]c(=O)[nH]c3c2)n1` as the compound, how does the Potency read?
Its Potency is inconclusive: 3.55 µM [activator, single point].

Which Potency does the source give for `CCCSC1=N/C(=C\c2ccc([N+](=O)[O-])o2)C(=O)S1` here?
Its Potency is inconclusive: 22.4 µM [inhibitor, partial curve].

How did the Potency turn out when `Cc1ccccc1NS(=O)(=O)c1ccc2[nH]cc(C(=O)NCCc3ccccc3)c(=O)c2c1` was run?
The Potency was active: 11.2 µM.

How did the Potency turn out when `COC/C=C/C1=CC2=CC(=O)C(C)(OC(=O)CCC(=O)OC)C(=O)C2=CO1` (stereo unspecified) was run?
The Potency was inconclusive: 17.8 µM [inhibitor, partial curve] and inconclusive: 39.8 µM [inhibitor, single point].

For `NC(=S)NNc1ccnc2cc(Cl)ccc12`, which Potency is on record?
Its Potency is “inactive”.

How did the Potency turn out when `COc1ccc(CNC(=O)Cn2c(=O)n3nc(-c4ccc(OC)cc4)nc3c3ccccc32)cc1` was run?
The Potency was inconclusive: 14.1 µM [inhibitor, single point].

For `CCOc1ccc(C(=O)Nc2ccc3nc(Nc4cccc(C(F)(F)F)c4)cc(C)c3c2)cc1OCC`, which Potency is on record?
The Potency was “inactive”.

With `COc1ccc(C(CC(=O)Nc2cc(Cl)c(OC)cc2OC)N2Cc3ccccc3C2=O)cc1` (stereo unspecified) as the compound, how does the Potency read?
The Potency was inconclusive: 3.98 µM [activator, single point].

`O=C(Nc1ccccc1)Nc1ccc(Cl)c(S(=O)(=O)N2CCOCC2)c1` was tested. Which Potency did it give?
Its Potency is inconclusive: 31.6 µM [inhibitor, partial curve].

For `O=C(Cn1ncn2cccc2c1=O)NCc1cccc(Br)c1`, which Potency is on record?
The Potency was inconclusive: 2.82 µM [inhibitor, full curve].
